This sample is rich in variants without activity.
B1: TPR 5TU (parent)
chain: GGAUCUUCUCGAUCUAACAAAAAAGACAAAUCUGCCACAAAGCUUGAGAGCAUCUUCGGAUGCAGAGGCGGCAGCCUUCGGUGGCGCGAUAGCGCCAACGUUCUCAACUAUGACACGCAAAACGCGUGCUCCGUUGAAUGGAGUUUAUCAUG

Variants of: B1
Assay: polymerase ribozyme fitness, log enrichment relative to wild type (log ratio); higher = more active; in vitro selection for triplet polymerase activity
Procedure, shortened: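 The heterodimeric triplet polymerase ribozyme's subunits were each mutagenized into PCR-built libraries and transcribed. Every library was selected once, in triplicate, by annealing with a biotinylated primer, the partner subunit and triplets, incubating frozen at −7 °C, gel-excising extended constructs, capturing on streptavidin beads and running RT-PCR. Input and output libraries were Illumina-sequenced, with genotypes kept only at ≥10 input reads and ≥1 read per output. Fitness, from inverse-variance-weighted replicate averages, is the base-2 logarithm of genotype enrichment over wild-type enrichment.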
For G88A A91C, the “polymerase ribozyme fitness (log ratio)” value was at most -4.2. In the case of C87U C132U, the “polymerase ribozyme fitness (log ratio)” value is reported as -1.11. For C87U U102C A147C, the “polymerase ribozyme fitness (log ratio)” value was -2.24. In the case of C85U C93G A113G C114U U127A C149G G152U, the “polymerase ribozyme fitness (log ratio)” value is reported as at most -4.2. With G86U C118U C125U the “polymerase ribozyme fitness (log ratio)” value was -4.01. In the case of G88A C118A A120G, the “polymerase ribozyme fitness (log ratio)” value is reported as at most -4.2. In the case of C85U A120G G124U G143C, the “polymerase ribozyme fitness (log ratio)” value is reported as -3.46. In the case of C85G C123G U139A, the “polymerase ribozyme fitness (log ratio)” value is reported as at most -4.2. For C85U G133C, the “polymerase ribozyme fitness (log ratio)” value was -1.69. In the case of C85U U148C, the “polymerase ribozyme fitness (log ratio)” value is reported as -2.19. With G86U C123G the “polymerase ribozyme fitness (log ratio)” value was -1.55. With G88A C116U the “polymerase ribozyme fitness (log ratio)” value was -4.05. In the case of C87G U109G, the “polymerase ribozyme fitness (log ratio)” value is reported as at most -4.2. With C85U A91G G100U A122C the “polymerase ribozyme fitness (log ratio)” value was at most -4.2. For C87U G100U C116A, the “polymerase ribozyme fitness (log ratio)” value was at most -4.2. For C87U C131A G140A, the “polymerase ribozyme fitness (log ratio)” value was -3.61. With C87U C123U G126U the “polymerase ribozyme fitness (log ratio)” value was 0.848. For C87G U146A, the “polymerase ribozyme fitness (log ratio)” value was at most -4.2. In the case of C87G U146C, the “polymerase ribozyme fitness (log ratio)” value is reported as at most -4.2. In the case of C87A A98G, the “polymerase ribozyme fitness (log ratio)” value is reported as at most -4.2. For C87G A142G, the “polymerase ribozyme fitness (log ratio)” value was -4.14. In the case of G86A A122U, the “polymerase ribozyme fitness (log ratio)” value is reported as -1.33. In the case of G86A A122G, the “polymerase ribozyme fitness (log ratio)” value is reported as -1.11. For G86A U90G, the “polymerase ribozyme fitness (log ratio)” value was at most -4.2. With G86A U90A the “polymerase ribozyme fitness (log ratio)” value was -3.67. For C85U A98C G124C, the “polymerase ribozyme fitness (log ratio)” value was -1.37. In the case of G88A U102C G112A A122U G136A G141U U146A, the “polymerase ribozyme fitness (log ratio)” value is reported as at most -4.2. In the case of C87A G141U, the “polymerase ribozyme fitness (log ratio)” value is reported as -3.64. For C87G C131G, the “polymerase ribozyme fitness (log ratio)” value was at most -4.2. With C85U A89U C95A U151A the “polymerase ribozyme fitness (log ratio)” value was at most -4.2. In the case of G88C A120U G126A U130G U139A, the “polymerase ribozyme fitness (log ratio)” value is reported as at most -4.2. In the case of G88A A97C U101G, the “polymerase ribozyme fitness (log ratio)” value is reported as at most -4.2. In the case of C87A G92A, the “polymerase ribozyme fitness (log ratio)” value is reported as at most -4.2. In the case of C87A G92U, the “polymerase ribozyme fitness (log ratio)” value is reported as 0.159. For G88A U101G U102G A138U U139G, the “polymerase ribozyme fitness (log ratio)” value was at most -4.2. For G86U G92U, the “polymerase ribozyme fitness (log ratio)” value was -1.95. In the case of C87U G100A U139C A142C A150U, the “polymerase ribozyme fitness (log ratio)” value is reported as at most -4.2. In the case of G88A A147C, the “polymerase ribozyme fitness (log ratio)” value is reported as -4.01. For C87A C99A U139A, the “polymerase ribozyme fitness (log ratio)” value was at most -4.2. With C87A C96A C114G G136U the “polymerase ribozyme fitness (log ratio)” value was at most -4.2. With C85G C149U the “polymerase ribozyme fitness (log ratio)” value was -2.46. With C85G C149G the “polymerase ribozyme fitness (log ratio)” value was at most -4.2. With C85U G136U G152C the “polymerase ribozyme fitness (log ratio)” value was at most -4.2. For C85U U135G G141A, the “polymerase ribozyme fitness (log ratio)” value was -3.54. In the case of C87A G94A U104A, the “polymerase ribozyme fitness (log ratio)” value is reported as at most -4.2. With C87G A98U the “polymerase ribozyme fitness (log ratio)” value was -3.64. For C87U G88C U90A G124U, the “polymerase ribozyme fitness (log ratio)” value was at most -4.2. In the case of G88C A150C U151A, the “polymerase ribozyme fitness (log ratio)” value is reported as at most -4.2. For C85U C96U G126C A147G, the “polymerase ribozyme fitness (log ratio)” value was at most -4.2. For G86C A138G, the “polymerase ribozyme fitness (log ratio)” value was at most -4.2. In the case of C85U A98U U139A, the “polymerase ribozyme fitness (log ratio)” value is reported as at most -4.2. For C85U G88C C118A C131U, the “polymerase ribozyme fitness (log ratio)” value was at most -4.2. In the case of G88A C116A U151G, the “polymerase ribozyme fitness (log ratio)” value is reported as at most -4.2. In the case of G86A C87A A89G C114U, the “polymerase ribozyme fitness (log ratio)” value is reported as at most -4.2. In the case of C87G U139A A147C, the “polymerase ribozyme fitness (log ratio)” value is reported as at most -4.2. In the case of C87U C105U, the “polymerase ribozyme fitness (log ratio)” value is reported as -2.21. In the case of G86U G141A U146C, the “polymerase ribozyme fitness (log ratio)” value is reported as -1.62. In the case of G88C G100C A106G U146C, the “polymerase ribozyme fitness (log ratio)” value is reported as at most -4.2. For C87U C108G U127C G136A, the “polymerase ribozyme fitness (log ratio)” value was at most -4.2. In the case of C87A C108G, the “polymerase ribozyme fitness (log ratio)” value is reported as at most -4.2. With C87G C118U the “polymerase ribozyme fitness (log ratio)” value was at most -4.2. In the case of C87A C125U, the “polymerase ribozyme fitness (log ratio)” value is reported as -4.14. In the case of C87A A107G A115U U135C A142C, the “polymerase ribozyme fitness (log ratio)” value is reported as at most -4.2. In the case of C85U C116G U145A, the “polymerase ribozyme fitness (log ratio)” value is reported as -2.57. For C87A G88U U111C U139C C149U, the “polymerase ribozyme fitness (log ratio)” value was at most -4.2. In the case of G86U U104G C116A, the “polymerase ribozyme fitness (log ratio)” value is reported as -2.52. In the case of C87G U109C U144C, the “polymerase ribozyme fitness (log ratio)” value is reported as at most -4.2. For G88C A89G A98U, the “polymerase ribozyme fitness (log ratio)” value was at most -4.2. For C87U C96U, the “polymerase ribozyme fitness (log ratio)” value was -1. For C87G U102G C125U, the “polymerase ribozyme fitness (log ratio)” value was at most -4.2. In the case of C87A G100A U134A, the “polymerase ribozyme fitness (log ratio)” value is reported as at most -4.2. With C85G G143U the “polymerase ribozyme fitness (log ratio)” value was -3.79. For G86A A89G C149U, the “polymerase ribozyme fitness (log ratio)” value was at most -4.2. For C87A U148A, the “polymerase ribozyme fitness (log ratio)” value was at most -4.2. With C85U U104G the “polymerase ribozyme fitness (log ratio)” value was -0.929. For C87U A120G, the “polymerase ribozyme fitness (log ratio)” value was -1.85. In the case of G86U, the “polymerase ribozyme fitness (log ratio)” value is reported as -1.62. In the case of G86C, the “polymerase ribozyme fitness (log ratio)” value is reported as -2.55. For C87A C118A G128U U148A, the “polymerase ribozyme fitness (log ratio)” value was at most -4.2. For G86A G94A C131G, the “polymerase ribozyme fitness (log ratio)” value was at most -4.2. With C85U G88A A98U the “polymerase ribozyme fitness (log ratio)” value was -3.79. For C87U A98G A106G, the “polymerase ribozyme fitness (log ratio)” value was -1.08. In the case of C85U C149A, the “polymerase ribozyme fitness (log ratio)” value is reported as at most -4.2.

— the RNAGym collection of RNA variant scans (doi:10.1073/pnas.2313332121)
